Experimental data: the supplement of paper PMC11417369
This is one part of the list.

The sequences below were run on PfSIP2 AP2 domain 1 (GST-tagged) (assay: gcPBM binding intensity (ln(normalized median fluorescence intensity)); higher = stronger DNA binding).
Outline: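 After 1 h on an Agilent 4 × 180k array of primer-extended double-stranded 36-bp intergenic genomic probes and negative controls, bound GST-tagged P. falciparum DNA-binding domains were detected with Alexa488 anti-GST antibody and scanned at 488 nm. The domains had been expressed in E. coli, and binding took place in 1× PBS with 1% milk, 0.2 mg/ml BSA, 0.5% salmon testes DNA and 0.03% Triton X-100. Binding intensity is the highest Masliner-normalised natural-log median intensity across replicate spots of either probe orientation.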

Row | Sequence | gcPBM binding intensity (ln)
1 | AAAATGTATTCTCTCATGCACACTTTCTTTAAGGGA [CACACA_site2196] | 7.68
2 | TTATTTATATTTTTTTGTACACATATTGTATACATA [XGTACX_site1178] | 7.22
3 | TGTAGATTTTGTAACACACACATATAAATACCTATA [CACACA_site7183] | 7.03
4 | ATCTCTTATATATTCACACACATATATATAATTATA [CACACA_site1502] | 7.45
5 | AAATATAATAACGAACGTACTTATTATAATTTGTAA [XGTACX_site2342] | 6.83
6 | TATTTATATATATGATGTACATAAGGTGTAATGTTA [XGTACX_site5591] | 7.24
7 | TACATGAATATTTATACATGCACACTAAAATAAAGA [TGCATGCA_site611] | 8.56
8 | TATTTACATACAAAATGTACAAAAATATATTTTTTT [XGTACX_site888] | 7.2
9 | ATATATATTTAATGTTGTACATAAAAAATATATAAA [XGTACX_site7774] | 7
10 | AAAGAATACAAAATTGCACACATATTGTGAAAATGT [CACACA_site9327] | 7.09
11 | TATTAACACAATAGCGCACACTTTTAATATTTTATA [CACACA_site1617] | 7.12
12 | ATATAATGTTGTAATAGTACTTTTTTCATATAAATA [XGTACX_site2666] | 7.1
13 | CTTAAATTGAAATGTTGTACAAAGTAAAAACAATGA [XGTACX_site2123] | 6.85
14 | TATTTCCATTCATAATTTTGTAGAATATATAACCGT [CACACA_negctrl_site1531] | 7.08
15 | CGTATATATATATACACACACATATATATATGTAAA [CACACA_site195] | 7.08
16 | AAAAACTTAATATTCACACATATATATATATATATA [CACACA_site5240] | 9.48
17 | AAAAAAAAAAATTACACACATACATATAATAATAAT [CACACA_site2193] | 6.9
18 | TTTACAAAAAATTATACACACACGTACATATAAATA [CACACA_site945] | 7.12
19 | TTTTATTATTAATTTCTTTTTTCTCATCACTTTCAA [XGTACX_negctrl_site117] | 6.85

Row | Sequence | gcPBM binding intensity (ln)
20 | ATATATATAAAATATACACACATACTGTTCATTTAA [CACACA_site6149] | 7.44
21 | TAATTTATGAGTAATACACACACTTGTGGATATATT [CACACA_site3790] | 6.73
22 | TACGTTCTAATATATACACACCTGGTATTAATTATG [CACACA_site5260] | 7.03
23 | GAAAAATTTTTATATGTGCACATGTTATATATAATT [GTGCAC_site9742] | 8.64
24 | AAATATTATTTATTTACACACCAATCTTCTTTTCTT [CACACA_site3990] | 6.96
25 | ATATTTATATGGTTTGCACACATAACAACTATGGTT [CACACA_site3631] | 6.99
26 | ATATAACATATCAATTGTACGTATTGATAATATATA [XGTACX_site2504] | 6.96
27 | TTTTGTTTTAATTTTATTTGATTTTATTTGATTTAT [CACACA_negctrl_site692] | 6.69
28 | AGGCACACAAACATATGTACACATATATATATATAT [XGTACX_site4723] | 9.15
29 | TTTATTGAACGTACACATATATATATGTATATATTT [TGCATGCA_negctrl_site141] | 7.21
30 | TTATTTTTTTTATATATATGTATAAATATATATATA [XGTACX_negctrl_site441] | 8.31
31 | GACAAAATGATAGGGACACACAATATCAATGTTTAA [CACACA_site765] | 6.96
32 | TCAATCATCTTATATAGTACACATAAAAGTATTATA [XGTACX_site8513] | 6.92
33 | AAAAAAAAAAATCCAGTGCATATATTTTTTACATAT | 9.29
34 | ATTACATTAATAAGAGTGCATTATATAAGTTTTATG | 8.23
35 | CCACTAATAAATATTACACACATATAGATTTATATT [CACACA_site7465] | 7.1
36 | CAAAAGGATATGCACACACACACACGGATATTTATA [CACACA_site7099] | 7.41
37 | TTTTGTTATTAGAGGGTGCTTATAATGAACTCCTAC | 8.29
38 | TATATTTATTTATATACACACACTTGTATAAAAAAT [CACACA_site2036] | 7.13

Row | Sequence | gcPBM binding intensity (ln)
39 | TTAAATATTTTTAGAGTGCATGTAATAAAAATATAA [GTGCAC_site9414] | 10.2
40 | TATATCAAAATACATACACACATTTGTATATACATT [CACACA_site2696] | 7.02
41 | TATATACAGAAACACACACACACATATATATATATA [CACACA_site2247] | 9.38
42 | TATCTATATGGGAACACACTCATAAATATATATCTA [CACACA_site4815] | 7.04
43 | AAAATAAATAAATACACACACACGAATATATATATA [CACACA_site1683] | 8.88
44 | TTTTAAAAATAATAAATAAATAAAATTGAAGTTCCA [CACACA_negctrl_site305] | 6.78
45 | AAAATTTTTAAATATTGTACTATTTATTTTTAGCAT [XGTACX_site6190] | 6.93
46 | TATATATATATATTTACACACATTCATATAAATTCA [CACACA_site3532] | 9.11
47 | GCCTACAGACTTAGTAGTACATGAGAAGATATATAT [XGTACX_site2269] | 7.09
48 | AATATGAACGGACACACACACACAAAAAAAAAAAAA [CACACA_site5154] | 7.03
49 | TATTATTTTTCCTAATGTACAAAATATATATTTTTA [XGTACX_site2727] | 7.33
50 | TTTGAATATATAAATATGCACACTTCTATTATAAAT [CACACA_site3359] | 9.99
51 | TTCTTATATAAATACACACACAAAATATCTACAATG [CACACA_site4568] | 7.12
52 | AAAAAAATAAAAAGGAACGTCTATAGTTAATTTATT [CACACA_negctrl_site919] | 6.85
53 | AATCGATTGGATAATATTTTTTCTCTTAATTTTTTG [GTGCAC_negctrl_site165] | 6.42
54 | TATATTAGAAGAAATTCACACATTCATGTAATCTTA [CACACA_site4706] | 6.49
55 | ATGTTGCACAATGTTACACACACAATATATATCGTT [CACACA_site4833] | 7.82
56 | TTTTTTTTGTTGTTGTTGCACTTGATAGGAATGGCT [GTGCAC_site9701] | 8.35
57 | AAAAAAAACAGACACACACACAAATACATACACAAA [CACACA_site705] | 7.07
